# Data taken from the supplement of paper PMC3334620.
# Whole data set: some 33,000 sequences, median “E-score (-0.5 to 0.5)” near -0.016, cut for the highest 2% near 0.32. The list shows a part of the results.
# Target: T1, Stp1 (UniProt B3LFK1)
# T1 sequence: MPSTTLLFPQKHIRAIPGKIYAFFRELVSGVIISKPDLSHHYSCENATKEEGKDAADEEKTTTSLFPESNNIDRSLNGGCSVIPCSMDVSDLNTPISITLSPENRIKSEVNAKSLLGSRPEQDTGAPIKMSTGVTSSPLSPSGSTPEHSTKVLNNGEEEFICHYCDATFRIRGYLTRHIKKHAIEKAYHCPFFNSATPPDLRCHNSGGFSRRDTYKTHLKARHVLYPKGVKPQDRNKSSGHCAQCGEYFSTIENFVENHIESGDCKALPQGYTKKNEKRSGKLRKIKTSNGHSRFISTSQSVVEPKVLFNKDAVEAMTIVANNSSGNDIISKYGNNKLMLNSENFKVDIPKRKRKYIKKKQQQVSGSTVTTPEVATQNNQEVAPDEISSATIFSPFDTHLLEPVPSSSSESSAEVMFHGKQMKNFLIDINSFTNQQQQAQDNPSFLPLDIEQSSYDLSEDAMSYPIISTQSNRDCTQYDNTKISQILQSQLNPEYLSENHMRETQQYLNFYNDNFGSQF
# Experiment: PBM E-score (8-mer binding enrichment) (E-score (-0.5 to 0.5)); higher = stronger / more preferred TF binding; most listed sequences are background and not binding sites
# Settings: protein concentration: 200 nM; construct: GST-full length
# Outline: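 Detection of bound protein used fluorescent anti-GST, with scans normalised by masliner. The proteins were GST-tagged yeast transcription factors applied at about 100-200 nM to universal all-10-mer Agilent arrays made double-stranded by primer extension. Each ungapped eight-base word, pooled with its reverse complement, was scored with an E-score from the Universal PBM Analysis Suite.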
row,Sequence,PBM E-score
1,ATTAGACA,0.0465
2,ACGGAGAT,0.025
3,AAATTAAC,0.0951
4,AGCCGATG,-0.046
5,AGGTACTG,-0.0685
6,GGGACCAC,-0.149
7,ACTGGCAT,-0.0932
8,CAATTATG,0.218
9,ACGCATAT,-0.1
10,CACACCTA,-0.00229
11,CGGGGCCA,-0.16
12,ATATTGAT,0.181
13,ATCAAACA,0.0879
14,AATCCCAA,0.00489
15,TATTACGA,0.0415
16,CCTCGTTC,-0.0717
17,CAGTCGCA,-0.0873
18,GCATGTCC,-0.112
19,ACGCATCT,-0.0566
20,CTGTTCTA,0.074
21,CTCGGAAC,0.0137
22,ATCGTGTA,-0.0176
23,ACGCATAG,0.0768
24,TGTAGACA,0.0162
25,CGGCTCAG,0.379

row,Sequence,PBM E-score
1,CATGATAA,0.0453
2,CTGCCACC,-0.0141
3,ACAAGCGC,0.114
4,ACCGAATC,-0.0403
5,ATGGTCGC,-0.00616
6,CATTGGCC,-0.224
7,CCTACCCA,-0.0762
8,GGATATAA,0.135
9,TCCCTCAA,-0.00823
10,GCTAGGAC,-0.0365
11,ACGTGTCG,-0.0661
12,GATTCGGA,0.122
13,TGTTAACA,-0.012
14,ACTTTTAG,-0.00241
15,CATCTAGA,-0.00728
16,ACATAAGC,0.00404
17,GTGCACCA,-0.0112
18,AGAGACCT,-0.174
19,CCATGATA,-0.108
20,ATACTCAG,0.06
21,CAGTTGAG,-0.112
22,GCCTCGGA,-0.00755
23,GACTCTCA,-0.0854
24,ACACACAT,0.16
25,AGGTCGTC,-0.156

row,Sequence,PBM E-score
1,AAGTACTT,0.0668
2,AATCACAT,-0.108
3,GGCCGGGA,-0.23
4,CAGATAGC,-0.217
5,TACGTCTA,-0.0514
6,GGTTCTTA,-0.145
7,AGATCACT,0.0299
8,CGACACAA,-0.0856
9,GCTGCGAA,-0.0255
10,ACACAGCC,0.0119
11,CTGAGCGC,0.0168
12,AAGGAGTC,-0.288
13,AACCCGTA,0.0688
14,CTAGCATA,-0.0957
15,GATAACTA,-0.0736
16,ATGGTTCA,0.1
17,CGGAAGGA,-0.0947
18,ACTGATAC,-0.055
19,AAATCTGC,0.0819
20,GCTCGCCC,-0.205
21,ATTGACAC,-0.0414
22,GTTCACAA,0.159
23,CCTTAGAA,0.025
24,AAAATGCC,0.352
25,CTTGATCC,0.0811

row,Sequence,PBM E-score
1,AAATGGTA,0.166
2,GCCGGGTA,-0.155
3,AGACGGCT,0.343
4,GTATAACA,0.123
5,ACACTTGC,0.0142
6,GATGCCGA,0.29
7,GGCGTGAC,0.0543
8,GCTGGAGA,-0.233
9,AACATCCT,-0.0558
10,GCTAATGA,-0.0283
11,AGGCCTAT,-0.178
12,CGAGCTAA,-0.191
13,GATGCAAA,-0.115
14,GCTGAGAC,0.0379
15,AGCGTAGG,-0.0457
16,GAAGAGGC,0.257
17,ATCCAACC,-0.136
18,GAGGTCAA,-0.207
19,GCGGTCCA,-0.242
20,AAACCGGT,-0.0421
21,CCGGTTCA,-0.218
22,CGTCCGGC,0.154
23,GCAAATAC,0.0493
24,AATGCTCT,0.0301
25,CCCTCCTA,-0.188

row,Sequence,PBM E-score
1,ACGAAGCA,-0.0696
2,ATATCGAG,0.123
3,GACTGAGC,-0.038
4,CATCATAC,0.136
5,GGGGTCGA,-0.0941
6,ATTATCGA,-0.0447
7,AAGCATAG,-0.135
8,ACAGTTGG,-0.0665
9,AATGTTTG,-0.0926
10,GATGGAAC,-0.1
11,AGAGTTAC,-0.232
12,CATTATAA,0.0479
13,GCCTAGTA,-0.0735
14,GAAAGCTC,-0.3
15,CAGCCAGA,-0.172
16,AGAGAGGC,-0.0773
17,AAAAGAGT,-0.145
18,CGTATGCA,0.255
19,CCCATACG,-0.00599
20,AATTGTCA,0.176
21,CGGGGCCC,-0.175
22,CAATATTG,0.051
23,AGATTCAA,0.12
24,AACATGCT,-0.029
25,GTAACGAA,0.11

row,Sequence,PBM E-score
1,TAGACAGA,-0.00937
2,ACCGATTG,0.111
3,TGCTCAAA,0.0414
4,GCTCTTAC,0.00089
5,CCGCGGTA,0.143
6,CAACGAGA,0.0401
7,TCTAGTCA,-0.0914
8,CTGGCATA,0.0913
9,CAACGAGG,0.175
10,CATAAGCC,-0.0492
11,CACCACGC,-0.0336
12,GAGGGTCA,-0.326
13,GTACATGA,0.117
14,CCAATACG,0.146
15,GACACGGA,0.315
16,GACCTACA,-0.0949
17,AAGAAATT,0.173
18,AGAACGCT,-0.11
19,AAGCGTGG,-0.0843
20,GGATTACC,-0.148
21,TGTGACAA,-0.0199
22,GATAGGAA,-0.0617
23,ACTTCAGC,-0.235
24,CTGCAATA,0.0565
25,GAGATACA,0.224

row,Sequence,PBM E-score
1,AGGATCAG,-0.0864
2,CTTACCCA,-0.125
3,TTCCAGAA,0.094
4,CGTATCAC,0.0898
5,CATTGTAC,-0.0426
6,AAAACGGA,0.201
7,ATCCTAAG,-0.137
8,ACAGCAAC,0.15
9,GTTTCCTA,0.0458
10,CAGCGGGG,-0.0996
11,GATACAAA,0.153
12,CATGGTAG,-0.0639
13,AAAGACGT,-0.116
14,AATGAGGA,-0.299
15,ACAGCATC,-0.129
16,CTGACGAC,-0.167
17,ATATGTTA,-0.114
18,TACCCTGA,-0.0306
19,CTTGCAAG,0.27
20,ATAGCGTA,0.162
21,AAACGATA,0.0578
22,ATTTTAGG,0.0943
23,ATGGGAAG,-0.152
24,AACTTGTG,0.0481
25,AGAATCTA,0.0588

row,Sequence,PBM E-score
1,CGTCCAAA,0.273
2,ACGTTCCC,-0.286
3,ATTAATTG,0.0803
4,CCAATAGC,-0.248
5,CTGGACAG,-0.168
6,CACACCTC,-0.138
7,AGCAAGAC,0.126
8,ACTTGTCA,0.0629
9,AAAAGTAG,0.171
10,CGGAGGAC,-0.253
11,AACGGGTA,0.194
12,AGAGTGAG,-0.0432
13,CACCGACA,0.0706
14,CTTGCGTA,0.0422
15,AGACGCGA,-0.0385
16,ACATCCCG,0.07
17,AAACACAA,0.142
18,ACACGCCG,0.351
19,GTGCCCGA,0.0185
20,AAGTACTG,-0.0176
21,CGATTTGC,-0.00024
22,ATACCTGA,0.105
23,CTCATAAA,-0.0607
24,CCTAGACA,-0.137
25,ATCTATGA,0.0128

row,Sequence,PBM E-score
1,AGGCCCCG,-0.142
2,ATCTAGAG,-0.105
3,AGTGCAAT,-0.119
4,CCTCGCGC,0.219
5,CGAAACTA,0.0955
6,GGTCATGA,-0.068
7,CAGGTGAC,-0.18
8,CGGTCCTC,-0.154
9,GCGATCGC,0.077
10,GGAGGTAA,-0.0408
11,CTCGTGTA,0.0486
12,ATGTGTAG,0.134
13,ACCTCATA,-0.0518
14,AGAGCTCA,-0.247
15,CCCCCCAG,-0.5
16,CGCTGTGA,-0.0905
17,AGCCGGTA,-0.0607
18,ACAATGAA,0.135
19,GGCTTGAC,-0.126
